Laboratory results from paper PMC4207660, “Identification and Characterization of Hundreds of Potent and Selective Inhibitors of Trypanosoma brucei Growth from a Kinase-Targeted Library Screening Campaign” (PLoS Neglected Tropical Diseases, 2014).
“And” between values parts separate entries of the source, which are not always exact repeats. Identical values can stand only once. Like-named read-outs stand apart in the source and are kept apart here.

Columns and labels:
[1] = ChromlogD assay; conditions: reversed-phase HPLC column (Luna C18 (2)), pH 7.4
Procedure: The Chromatographic Hydrophobicity Index (CHI)[22] values were measured using reversed phase HPLC column (Luna C18 (2), Phenomenex, UK) with a fast acetonitrile gradient at starting mobile phase of pH = 7.4. CHI values are derived directly from the gradient retention times by using a calibration line obtained for standard compounds. The CHI value approximates to the volume % organic concentration when the compound elutes. […] The average error of the assay is ±3 CHI unit or ±0.25 ChromlogD.

[2] = tested on: T. brucei; type: cell-based, Trypanosoma brucei brucei
Procedure: 100 nL per well from master plates were stamped in final assay black, clear-bottom 384-well Greiner microplates, including controls of 0% response (DMSO) and 100% response (2 μM Pentamidine): the final assay concentration was 20 μM. Plates containing DMSO were included randomly in the assay, to assess quality through all process. […] After 18 hours incubation, plates were centrifuged in a centrifuge (Beckman Coulter) for 5 min at 500 g, to sediment the cells, supernatant was aspirated with a Cybio-Well dispenser (Cybio), and 40 μL/well of fresh prewarmed HMI-9 were added: this cycle was performed three times. After the last cycle, 10 μL/well of cells suspension were aspirated by Cybio-Well equipment and dispensed over 40 μL of fresh prewarmed HMI-9 in “recovery plates”: calculated maximal residual concentration was 32 nM. […] Assay […] quality was determined by Z' score and validated data set were analyzed with ActivityBase software. As previous described percentage of inhibition was calculate for each concentration based on controls. A 4-parameter equation was used to fit the dose-response curves and pEC50 determination. The potential effect of residual drug remaining after washes was evaluated by performing the same protocol with standard trypanocidal drugs (such as suramin and diminazene) and negligible effect was observed. […]

[3] = tested on: T. brucei brucei parasites (Lister 427 strain); experiment: Dose response growth inhibition assay (resazurin, 72 h); type: cell-based; conditions: Trypanosoma brucei, 72 h; read-out: pEC50 (converted)
Procedure: Greiner sterile black clear bottom 384-well assay plates were pre-dispensing with 200 nL of compound in each well, from master plates at 1 mM (100% DMSO) containing selection from the GSK compound collection. Controls of 0% response (control 1, 200 nL of 100%DMSO) and 100% response (control 2, 200 nL of 1 mM pentamidine) were included in each assay plate in columns 6 and 18, respectively. Plates containing 200 nL of 100% DMSO were included randomly in the assay, to assess quality through all process. […] After this period, 10 µL of 200 µM resazurin solution in prewarmed HMI-9 were added to each well, and plates were allowed to incubate 2 hours more prior fluorescence reading in a Wallac EnVision Multilabel Plate Reader (Perkin-Elmer). Raw fluorescent data from the Envision plate reader were uploaded into GSK HTS database (ActivityBase). Activity of each well was normalized as a percentage of inhibition per-plate basis using the following equation: [drawing 1]
For dose-response experiments, serial compound dilutions of selected hits from the primary campaign were plotted against compound concentration. Dose response master plates were prepared by 3-fold dilutions (starting with 10 mM DMSO stock solutions), providing 11 concentrations. From these master plates, 200 nL per well was stamped in final assay plates, including the same controls describe in the primary single shot assay. […]

[4] = Plasma protein binding in human plasma; type: in vitro ADME
[5] = Tolerability in mice; type: in vivo; conditions: i.p. doses of 20 mg/kg
[6] = tested on: T. b. brucei (Lister 427); experiment: In vivo efficacy, mouse bloodstream infection with T. b. brucei; conditions: for Parasitemia counts / Survival status of mouse: T. b. brucei infected mice, 20 mg/kg/day; for Parasitemia counts: one value per mouse; for Survival status of mouse: per mouse
[7] = tested on: T. b. rhodesiense (strain EATRO3 ETat1.2 TREU164); experiment: Potency assessment in vitro against T. b. rhodesiense (AlamarBlue, 72 h); type: cell-based; conditions: Trypanosoma brucei
[8] = Mouse pharmacokinetics (peripheral whole blood); type: in vivo, NMRI female mice
Procedure: For pharmacokinetic studies NMRI female mice of 20–25 g weight were used. […] All mice received treatment in the fed state. […] Peripheral total blood was the compartment chosen for the establishment of compound concentrations. […] LC-MS was used as the analytical method of choice for the establishment of compound concentration in blood with a sensitivity of LLQ = 1–5 ng/ml in 20 µL of blood. The non-compartmental data analysis (NCA) was performed with WinNonlin Phoenix 6.3 (Pharsight, Certara L.P) and supplementary analysis was performed with GraphPad Prism 6 (GraphPad Software, Inc).

[9] = female, mouse, IP, real doses NEU-1200 5, NEU-1207 4.5, NEU-1053 5 mg/kg, NMRI mice, whole blood, mean n=3
[10] = female, mouse, IV, real doses NEU-1200 1, NEU-1207 0.9, NEU-1053 1.12 mg/kg, NMRI mice, whole blood, mean n=3
[11] = female, mouse, PO, real doses NEU-1207 4.5, NEU-1053 5 mg/kg, NMRI mice, whole blood, mean n=3

OCCn1c(CNCCCNc2nc3ccccc3[nH]2)cc2c(Cl)cc(Cl)cc21 [NEU-0001053]
logD [1]: 3.07 | Cidal? [2]: Y (“Cidal” is defined as pEC99≥6 in the reversibility experiments.) | EC50 [3]: 0.676 nM | fraction unbound [4]: < 0.01 | tolerability [5]: well-tolerated | mice with parasitemia detected after the four day treatment hiatus ([6]; 20 mg/kg/d ip): 2 out of 4 | cure, 90 days after treatment ([6]; 20 mg/kg/d ip, two four-day rounds, one mouse died on day 21): three other mice have been deemed to be cured | Parasitemia counts ([6]; day 4 (treatment day)): N.D. (Not Detected (< 500 parasites/ml blood)) | Parasitemia counts ([6]; day 5 (treatment day)): N.D. (Not Detected (< 500 parasites/ml blood)) | Parasitemia counts ([6]; day 6 (treatment day)): N.D. (Not Detected (< 500 parasites/ml blood)) | Parasitemia counts ([6]; day 13 (treatment day)): N.D. (Not Detected (< 500 parasites/ml blood)) | Parasitemia counts ([6]; day 21): N.D. (Not Detected (< 500 parasites/ml blood)) | Survival status of mouse ([6]; day 21): Dead | Parasitemia counts ([6]; day 47): N.D. (Not Detected (< 500 parasites/ml blood)) | Survival status of mouse ([6]; day 90): Alive | EC50 ([7]; 72 h, AlamarBlue, read-out: T. b. rhodesiense EC50): 0.26 ± 0.04 nM | EC50 ([7]; see Table S6, read-out: T. b. rhodesiense pEC50 (converted)): 0.251 nM | bioavailability ([8]; female, NMRI, mouse, whole blood, PO, real doses NEU-1207 4.5, NEU-1053 5 mg/kg, mean n=3): 8.5% | Cmax [8, 9]: 147 ng/mL and 339 nM | Tmax [8, 9]: 0.42 h | half-life [8, 9]: 7.2 h | clearance [8, 10]: 110 mL/min/kg | half-life [8, 10]: 1.7 h | Vd ([8]; female, mouse, IV, real doses NEU-1200 1, NEU-1207 0.9, NEU-1053 1.12 mg/kg, NMRI mice, whole blood, mean n=3, read-out: Vss): 12.8 L/kg | Cmax [8, 11]: 28.6 ng/mL and 66.2 nM | Tmax [8, 11]: 0.42 h | time total blood exposure was in excess of the EC99 ([8]; intraperitoneal 5 mg/kg single dose): > 24 h
